In PubChem BioAssay AID1346428 (National Center for Advancing Translational Sciences (NCATS), 2018):
Out of some 48,000 compounds screened, about 1,200 (2.5%) were called active. Another 2% or so got no clear call; they are omitted.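 How the source made its calls: active means activation of at least 60% and not above a set upper limit (about 1 call in 100 departs from these limits); inconclusive means activation of 40% to 60%, or above that upper limit; inactive means activation under 40%.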 Some of the results follow.

biological target: Probable G-protein coupled receptor 32 (Homo sapiens) (UniProt O75388); assay: qHTS for Agonists of Human Resolvin D1 Receptor DRV1; conditions: CHO-K1 GPR32 beta-arrestin PathHunter luminescence, 90 min; at 76.9 µM; stronger effect = higher value; zero percent set by DMSO-only wells
UniProt O75388, sequence (O75388 whole entry, looked up): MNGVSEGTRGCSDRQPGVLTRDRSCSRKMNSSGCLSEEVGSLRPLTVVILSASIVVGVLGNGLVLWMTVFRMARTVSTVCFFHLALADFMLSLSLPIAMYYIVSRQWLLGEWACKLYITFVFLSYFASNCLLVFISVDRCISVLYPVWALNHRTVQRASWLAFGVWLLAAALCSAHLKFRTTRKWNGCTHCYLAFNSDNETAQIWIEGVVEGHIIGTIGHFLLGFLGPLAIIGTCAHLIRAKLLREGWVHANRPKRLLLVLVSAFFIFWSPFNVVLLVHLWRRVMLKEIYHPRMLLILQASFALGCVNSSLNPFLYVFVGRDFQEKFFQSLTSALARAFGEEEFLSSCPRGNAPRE
In short: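 Using DMSO wells as EC0, agonist-induced signal was taken as chemiluminescence from beta-Gal reconstituted upon beta-arrestin recruitment to GPR32 in CHO-K1 cells after 90 min compound treatment.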

activation, inactive:
CN(C)c1ccc(CNc2nc(-c3ccco3)nn2C(=O)c2cccc([N+](=O)[O-])c2)cc1 -31.8%, CCc1ccc(-n2c(C)nc3cc(C(=O)NCCc4ccccc4)ccc32)cc1 -18.7%, CN(C)c1ccc(CN(CC2CCCO2)C(=O)COc2ccc(Cl)cc2)cc1 (configuration not stated) -28.2%, Cc1cc(O)c(C(c2cccc(Cl)c2)N2CCN(c3ccccc3)CC2)c(=O)n1Cc1ccco1 (configuration not stated) -17.3%, CC(=O)N1CCCc2cc(S(=O)(=O)N3CCCC(C(=O)NCc4ccc(Cl)cc4)C3)ccc21 (configuration not stated) 8.18%, COc1cccc(CN2C(=O)c3ccccc3C2C(=O)NCCc2ccc(OC)c(OC)c2)c1 (configuration not stated) -10.1%, COc1ccccc1NC(=O)CSc1ncc2c(n1)-c1cc(Cl)ccc1N(C)S2(=O)=O -13.5%, CC(C)CC(=O)Nc1ccc(C(=O)OCc2cc(=O)n3nc(C4CCCCC4)sc3n2)cc1 -11.6%, Cc1nc(N2CCCC2)ncc1C(=O)Nc1ccccc1 33%, O=C(Nc1ccc(S(=O)(=O)N2CCC(c3nc4ccccc4s3)CC2)cc1)c1ccccc1F -0.171%, Cc1cccc(C(=O)Nc2ccc(N3CCC(CCN4CCOCC4)CC3)c(C(=O)O)c2)c1 -8.55%, CCN(C(=O)NCc1noc2ccccc12)c1cc(C)ccc1C -19.8%, CCOc1ccc(CNC(=O)CCn2cccn2)cc1OC 2.24%, Cc1ccc2nc(/C(C#N)=C/c3ccc(-c4cccc(Cl)c4)o3)[nH]c2c1 4.35%, CCCCCOc1ccc(C(=O)N(Cc2ccccc2)C2CCS(=O)(=O)C2)cc1 (configuration not stated) -28.7%, CCOc1ccc(CCNC(=O)c2cc3c(-c4cccc(OC)c4)nn(C)c3s2)cc1OCC -7.13%, CCOc1ccc(NC(=O)CN2C(=O)C(c3ccccc3)=NC23CCCCCC3)cc1 -30.2%, Cc1cc(NC(=O)CN(C)S(=O)(=O)c2ccc3c(c2)CCC(=O)N3)ccc1Br 44.6%, Cc1cccc(Cn2c(C)c(C)c3cc(C(=O)NCc4ccc(C)o4)ccc32)c1 -37.8%, CCN(CCCNC(=O)c1nn(-c2ccc(OC)cc2)c(=O)c2c1c1ccccc1n2C)c1cccc(C)c1 -33%, COc1ccc(-c2cccc(NS(=O)(=O)c3cc(C)c(Cl)cc3C)c2)nn1 35.7%, Cc1cccc(CS(=O)(=O)Cc2ccc(C(=O)NCc3ccc(Cl)cc3)o2)c1 -3.17%, CCCCC12CN3CC(C)(CN(C1)C3c1c(C)[nH]c(=O)[nH]c1=O)C2=O (configuration not stated) 0.795%, Cc1cccc(C(CC(=O)NCC2(c3ccccc3)CCCC2)c2ccccc2)c1O (configuration not stated) 26.3%, CCC(C(=O)NCCc1ccc(Cl)cc1)n1nc(C)c2c(C)n(-c3ccccc3)nc2c1=O (configuration not stated) -3.47%, Cc1nc2nc(SCC(=O)NC(C)c3ccccc3)nn2c(C)c1Cc1c(F)cccc1Cl (configuration not stated) -12.6%, COc1cccc(CSc2nc3n(n2)C(c2ccccc2C)C(C(=O)Nc2ccccc2OC)=C(C)N3)c1 (configuration not stated) -16.3%, O=C(CSc1oc(-c2ccco2)nc1S(=O)(=O)c1ccc(Cl)cc1)c1ccccc1 -15.8%, CCOc1ccc(CN2C(=O)c3ccccc3Sc3ccc(C(=O)NCc4ccc(C)cc4)cc32)cc1 -19.8%, COC(=O)c1ccc(NC(=O)CC2C(=O)N(c3cccc(OC)c3)C(=O)N2Cc2cccc(OC)c2)cc1 (configuration not stated) -22.9%, Cc1ccc(N2CCN(C(=O)c3nn(C)c4c3CSc3ccccc3-4)CC2C)cc1 (configuration not stated) -17.9%, Cc1ccc(CNC(=O)CN(c2cc(C)cc(C)c2)S(=O)(=O)c2c(C)[nH]c(=O)[nH]c2=O)cc1 -8.09%, O=C(NC1CCCC1)c1ccc2c(c1)N(Cc1ccc(F)cc1)C(=O)c1ccccc1S2 -20%, CCc1ccc(C2c3c(n[nH]c3C)C(=O)N2c2ccc(C)cc2)cc1 (configuration not stated) 3.21%, CCc1cccc(NC(=O)CCS(=O)(=O)c2ccc(C)cc2)c1 -3.24%, CCOc1ccc(-c2ccc(CO)o2)cc1N -19.3%, CC(C)CCNC(=O)CSc1nc2ccsc2c(=O)n1Cc1ccccc1Cl -22.5%, COc1ccc(NC(=O)C(Cc2ccccc2)n2cccc2)c(OC)c1 (configuration not stated) -12.1%, COc1ccc(-c2noc(-c3ccccc3NC(=O)c3cc(OC)c(OC)c(OC)c3)n2)cc1 -2.93%, COc1ccccc1N1CCN(C(=O)CSc2nc(-c3ccc(C(C)C)cc3)no2)CC1 -6.64%, Cc1cccc(NC(=O)c2c(Br)sc3c2CCCC3)c1 -8.5%, O=C(NCc1ccc(Cl)cc1)C1CCCN(c2ncnc3onc(-c4ccc(F)cc4)c23)C1 (configuration not stated) -0.93%, COc1ccc(Nc2nnc(-c3ccc(C)c(S(=O)(=O)N4CCOCC4)c3)c3ccccc23)cc1 11.5%, O=C(COc1ccccc1F)Nc1nnc(S(=O)(=O)N2CCCCCC2)s1 8.14%, CCOc1cc(C2c3c(oc4ccc(F)cc4c3=O)C(=O)N2Cc2ccc(C)cc2)ccc1O (configuration not stated) -7.7%, CCCCNC(=O)CSc1nc2n[nH]c(C)c2c(=N)n1-c1ccccc1CC -16.1%, COc1ccc(C2CC(=O)c3c([nH]c(C(=O)OCc4ccccc4)c3C)C2)cc1OC (configuration not stated) 0.708%, OC(CCN1CCCCC1)(c1ccccc1)c1ccccc1 -3.87%, CCC1CN(C(=O)Nc2cccc3c2CCCC3)c2cc(C)ccc2O1 (configuration not stated) -35.6%, CCOC(=O)c1c(C)oc2nc(C)nc(NCCCN3CCN(c4cccc(C)c4)C(C)C3)c12 (configuration not stated) -30.5%, Cc1ccccc1Cc1c(C)nc2nc(SCC(=O)NC(C)c3ccccc3)nn2c1C (configuration not stated) -30.5%, O=C(NCCCN1CCN(c2ccccc2)CC1)c1cc2c(s1)-c1ccccc1OC2 0.0833%, CCCCNC(=O)C1CCN(Cc2nc(-c3ccc(OC)c(OC)c3)oc2C)CC1 -11.3%, CCC1CN(C(=O)NCc2ccc(F)cc2)c2ccccc2O1 (configuration not stated) -25.3%, CC(C)(Cc1c[nH]c2ccccc12)NCC(O)COc1ccccc1C#N (configuration not stated) 38.6%, Cc1ccc(NC(=O)c2ccco2)c(OCc2cc(=O)n3cc(C)sc3n2)c1 -7.7%, COc1ccc(-n2c(=O)c3c4c(sc3n(Cc3cc(=O)n5c(C)cccc5n3)c2=O)CCC4)c(OC)c1 -6.7%, COc1ccc(C2CC(=O)N3CN(C4CCCCC4)CSC3=C2C#N)cc1 (configuration not stated) 48%, CCc1ccc(CNC(=O)CSCc2cnn(-c3ccccc3)c2-n2cccc2)cc1 -32.4%, Cc1ccc(Cn2c(=O)c3ccccc3n3c(-c4ccccc4)nnc23)cc1 19.9%, COc1ccc(NC(=O)CCCS(=O)(=O)c2nc(-c3ccc(OC)c(OC)c3)cc(C(F)(F)F)n2)cc1OC -10.1%, Cc1ccc(OCC(=O)Nc2ccc3nc(SCC(=O)N4CCCC4)sc3c2)cc1C -10.7%, O=C(Nc1ccc2c(c1)N(C1CCCC1)C(=O)c1ccccc1S2)c1ccccc1 -1.06%, Cc1ccc(Cl)cc1NC(=O)CCS(=O)(=O)c1ccc(Br)s1 47.4%, COc1cccc(-c2nc(CS(=O)CC(=O)N3CCN(c4cccc(C(F)(F)F)c4)CC3)c(C)o2)c1 (configuration not stated) -2.35%, COc1ccc(CCNC(=O)C(=O)NCC(c2cccs2)S(=O)(=O)c2ccccc2)cc1 (configuration not stated) 29.3%, Cc1ccc(SCC(=O)Nc2ccc3oc(-c4cccc(C)c4)nc3c2)cc1 32.6%, CCN1C(=O)CC(C(=O)Nc2ccc(OC)cc2)SC1=Nc1ccc(C)c(C)c1 (configuration not stated) 13.2%, COc1ccc(OC)c(CNS(=O)(=O)c2ccc(-c3cc(C(F)(F)F)on3)s2)c1 -6.29%, O=C(Cn1cc(SCc2ccccc2Cl)c2ccccc21)N1CCCCCC1 -15.9%, O=C(NCCC1=CCCCC1)c1ccc2c(c1)N(Cc1ccccc1)C(=O)c1ccccc1S2(=O)=O -69.4%, CCOc1ccc(-c2nc3c(c(CC)nn3-c3ccccc3)c3cc(OC)c(OC)cc23)cc1 5.94%, CSc1ccccc1NC(=O)C1=CC(c2ccc3c(c2)OCO3)=NS(=O)(=O)N1C -26.1%, CC1=C(C(N)=O)C(c2cccc(C)c2)n2nc(-c3ccc(Cl)cc3)nc2N1 (configuration not stated) -28.3%, OCC(CO)N[C@H]1C[C@](O)(CO)[C@@H](O)[C@H](O)[C@H]1O 6.75%, C[N+]1(C)[C@@H]2CC(OC(=O)[C@H](CO)c3ccccc3)C[C@H]1[C@@H]1O[C@@H]12 (some centres not stated) -8.8%, CCOC(=O)c1ccc2c(c1)N(CC(=O)Nc1cc(F)ccc1F)C(=O)c1ccccc1S2 13.8%, CCN(CC)CCOC(=O)c1ccc(NC(=O)c2nn(-c3ccc(C)cc3)c(=O)c3c2c2ccccc2n3C)cc1 -14.8%, CCN(C(=O)Cn1nc2c3cc(F)ccc3n(Cc3cccc(C)c3)cc-2c1=O)c1cccc(C)c1 -8.27%, CCOC(=O)CCN(Cc1ccccc1)S(=O)(=O)c1csc(C(N)=O)c1 -3.24%, Cc1cccc(-c2nc3cc(NC(=O)Cc4ccc(Cl)cc4)ccc3o2)c1 21.7%

activation, active:
O=S(=O)(Nc1nc2n(n1)C(c1ccccc1)C=C(c1ccc(Cl)cc1)N2)c1ccccc1 (configuration not stated) 72.2%
